According to the supplement of paper PMC4604168 (melanoma cell lines):
The list shows a part of the results. Repeats are few or missing, and single values can be far off.

The compounds below were run on COLO800 (assay: cell count relative to DMSO control; melanoma cells; higher = more viable cells). Conditions: library dose: low library concentration; 72 h.
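Also: cell number obtained by counting DAPI-stained nuclei in high-throughput microscope images with image analysis software, screen run in 1,536-well plates.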

For Cc1cn(-c2cc(NC(=O)c3ccc(C)c(Nc4nccc(-c5cccnc5)n4)c3)cc(C(F)(F)F)c2)cn1 [nilotinib] + CC(C)C[C@H](NC(=O)[C@H](Cc1ccccc1)NC(=O)c1cnccn1)B(O)O [Bortezomib] (first compound 0.2 µM, partner dose 0.001 µM), which cell count is on record?
The cell count was 140%.

With Cn1c(=O)n(-c2ccc(C(C)(C)C#N)cc2)c2c3cc(-c4cnc5ccccc5c4)ccc3ncc21 + CN1CCN(c2ccc3nc(-c4c(N)c5c(F)cccc5[nH]c4=O)[nH]c3c2)CC1 [Dovitinib] (first compound 0.004 µM, partner dose 0.1 µM) as the compound, how does the cell count read?
The cell count was 99.6%.

Which cell count does the source give for CC(C)C[C@H](NC(=O)[C@H](Cc1ccccc1)NC(=O)c1cnccn1)B(O)O [Bortezomib] + CCCS(=O)(=O)Nc1ccc(F)c(C(=O)c2c[nH]c3ncc(Cl)cc23)c1F [PLX4720] (first compound 0.001 µM, partner dose 0.08 µM) here?
The cell count was 98%.

For Cc1cn(-c2cc(NC(=O)c3ccc(C)c(Nc4nccc(-c5cccnc5)n4)c3)cc(C(F)(F)F)c2)cn1 [nilotinib] + OCc1c[nH]c2ccccc12 [Indole-3-carbinol] (first compound 0.2 µM, partner dose 0.8 µM), which cell count is on record?
Its cell count is 98.2%.

For CC(C)C[C@H](NC(=O)[C@H](Cc1ccccc1)NC(=O)c1cnccn1)B(O)O [Bortezomib] + Cn1c(Nc2ccc(C(F)(F)F)cc2)nc2cc(Oc3ccnc(-c4ncc(C(F)(F)F)[nH]4)c3)ccc21 [CHIR265] (first compound 0.001 µM, partner dose 0.08 µM), which cell count is on record?
Its cell count is 123%.

With Cc1cc(Nc2cc(N3CCN(C)CC3)nc(/C=C/c3ccccc3)n2)n[nH]1 + Cn1nnc2c(C(N)=O)ncn2c1=O [temozolomide] (first compound 0.04 µM, partner dose 2 µM) as the compound, how does the cell count read?
Its cell count is 80%.

Cc1cn(-c2cc(NC(=O)c3ccc(C)c(Nc4nccc(-c5cccnc5)n4)c3)cc(C(F)(F)F)c2)cn1 [nilotinib] + Cn1nnc2c(C(N)=O)ncn2c1=O [temozolomide] (first compound 0.2 µM, partner dose 2 µM) was tested. Which cell count did it give?
Its cell count is 86.2%.
